Assay results taken from article PMC12820563, “FoxP3 forms a head-to-head dimer in vivo and stabilizes its multimerization on adjacent microsatellites”.
The other results are listed elsewhere or left out.

Target: T1, MBP-FoxP1dN (Mus musculus, UniProt P58462 326-579)
T1 sequence: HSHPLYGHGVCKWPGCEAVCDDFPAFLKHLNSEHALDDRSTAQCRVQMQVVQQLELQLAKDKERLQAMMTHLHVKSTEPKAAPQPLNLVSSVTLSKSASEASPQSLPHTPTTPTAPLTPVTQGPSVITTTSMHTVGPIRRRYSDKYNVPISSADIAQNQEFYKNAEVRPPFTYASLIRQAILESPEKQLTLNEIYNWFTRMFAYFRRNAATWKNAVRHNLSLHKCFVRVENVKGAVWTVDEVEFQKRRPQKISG
Assay: PD-seq (MBP pull-down with sequencing); 20 mM Tris-HCl pH 7.5, 100 mM NaCl, 1.5 mM MgCl2, 0.4 uM protein, 0.1 uM dsDNA library, 30 min, room temperature, amylose pull-down; high values mean tight binding
Conditions: protein: recombinant; tags: His6-MBP; chain copies: 2; dsDNA, one strand shown
How it was run: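 In Tris pH 7.5 buffer with NaCl and MgCl2, 0.4 µM His6-MBP-tagged mouse FoxP3 or FoxP1 fragment lacking the N-terminus, from E. coli, met 0.1 µM Klenow-filled double-stranded degenerate DNA library for 30 min at room temperature. Three washes on amylose resin followed capture of the complexes, then proteinase K release of DNA, PCR barcoding and Illumina sequencing. Binding is taken as pooled-replicate reads-per-million enrichment of pull-down relative to input.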

Row | Sequence | binding signal
1 | GATGATTGTTCTCCCAGCTGATGAATTTGTCCCTTCGAGTAAACAAATTTTCCTAATCTTTCTGTTCAAGCGCCATCTAC | 1.01 RPM ratio (pull-down/input)
2 | GATGATTGTTCTCCCAGCTGATGAATTGGGCGGATCGAGTAAACAAATTTTCCTAATCTTTCTGTTCAAGCGCCATCTAC | 0.846 RPM ratio (pull-down/input)
3 | GATGATTGTTCTCCCAGCTGATGAATTGAAACATTCGAGTAAACAAATTTTCCTAATCTTTCTGTTCAAGCGCCATCTAC | 1.08 RPM ratio (pull-down/input)
4 | GATGATTGTTCTCCCAGCTGATGAATTGTCAGTGTCGAGTAAACAAATTTTCCTAATCTTTCTGTTCAAGCGCCATCTAC | 0.969 RPM ratio (pull-down/input)
5 | GATGATTGTTCTCCCAGCTGATGAATTCTTTATCTCGAGTAAACAAATTTTCCTAATCTTTCTGTTCAAGCGCCATCTAC | 0.879 RPM ratio (pull-down/input)
6 | GATGATTGTTCTCCCAGCTGATGAATTCTGGCATTCGAGTAAACAAATTTTCCTAATCTTTCTGTTCAAGCGCCATCTAC | 1.03 RPM ratio (pull-down/input)
7 | GATGATTGTTCTCCCAGCTGATGAATTCCATTATTCGAGTAAACAAATTTTCCTAATCTTTCTGTTCAAGCGCCATCTAC | 0.887 RPM ratio (pull-down/input)
8 | GATGATTGTTCTCCCAGCTGATGAATTATGCGCTTCGAGTAAACAAATTTTCCTAATCTTTCTGTTCAAGCGCCATCTAC | 0.977 RPM ratio (pull-down/input)
9 | GATGATTGTTCTCCCAGCTGATGAATTGCGTCCCTCGAGTAAACAAATTTTCCTAATCTTTCTGTTCAAGCGCCATCTAC | 0.999 RPM ratio (pull-down/input)
10 | GATGATTGTTCTCCCAGCTGATGAATTGCACTCTTCGAGTAAACAAATTTTCCTAATCTTTCTGTTCAAGCGCCATCTAC | 1.3 RPM ratio (pull-down/input)
11 | GATGATTGTTCTCCCAGCTGATGAATTCCAGTCTTCGAGTAAACAAATTTTCCTAATCTTTCTGTTCAAGCGCCATCTAC | 0.756 RPM ratio (pull-down/input)
12 | GATGATTGTTCTCCCAGCTGATGAATTTTGTGGCTCGAGTAAACAAATTTTCCTAATCTTTCTGTTCAAGCGCCATCTAC | 0.981 RPM ratio (pull-down/input)
13 | GATGATTGTTCTCCCAGCTGATGAATTACCGAACTCGAGTAAACAAATTTTCCTAATCTTTCTGTTCAAGCGCCATCTAC | 0.921 RPM ratio (pull-down/input)
14 | GATGATTGTTCTCCCAGCTGATGAATTAAGATCGTCGAGTAAACAAATTTTCCTAATCTTTCTGTTCAAGCGCCATCTAC | 0.881 RPM ratio (pull-down/input)
15 | GATGATTGTTCTCCCAGCTGATGAATTCTACGTGTCGAGTAAACAAATTTTCCTAATCTTTCTGTTCAAGCGCCATCTAC | 0.836 RPM ratio (pull-down/input)
16 | GATGATTGTTCTCCCAGCTGATGAATTCTCGGTATCGAGTAAACAAATTTTCCTAATCTTTCTGTTCAAGCGCCATCTAC | 0.843 RPM ratio (pull-down/input)
17 | GATGATTGTTCTCCCAGCTGATGAATTACCATGTTCGAGTAAACAAATTTTCCTAATCTTTCTGTTCAAGCGCCATCTAC | 1.02 RPM ratio (pull-down/input)
18 | GATGATTGTTCTCCCAGCTGATGAATTCGGCGGGTCGAGTAAACAAATTTTCCTAATCTTTCTGTTCAAGCGCCATCTAC | 0.749 RPM ratio (pull-down/input)
19 | GATGATTGTTCTCCCAGCTGATGAATTGTGGGTATCGAGTAAACAAATTTTCCTAATCTTTCTGTTCAAGCGCCATCTAC | 1.04 RPM ratio (pull-down/input)
20 | GATGATTGTTCTCCCAGCTGATGAATTTTACGGTTCGAGTAAACAAATTTTCCTAATCTTTCTGTTCAAGCGCCATCTAC | 0.917 RPM ratio (pull-down/input)

Row | Sequence | binding signal
21 | GATGATTGTTCTCCCAGCTGATGAATTTCGTCCTTCGAGTAAACAAATTTTCCTAATCTTTCTGTTCAAGCGCCATCTAC | 0.84 RPM ratio (pull-down/input)
22 | GATGATTGTTCTCCCAGCTGATGAATTTCTAAGTTCGAGTAAACAAATTTTCCTAATCTTTCTGTTCAAGCGCCATCTAC | 0.892 RPM ratio (pull-down/input)
23 | GATGATTGTTCTCCCAGCTGATGAATTTTAGCTGTCGAGTAAACAAATTTTCCTAATCTTTCTGTTCAAGCGCCATCTAC | 0.941 RPM ratio (pull-down/input)
24 | GATGATTGTTCTCCCAGCTGATGAATTTGTCCCATCGAGTAAACAAATTTTCCTAATCTTTCTGTTCAAGCGCCATCTAC | 1.05 RPM ratio (pull-down/input)
25 | GATGATTGTTCTCCCAGCTGATGAATTAATCACGTCGAGTAAACAAATTTTCCTAATCTTTCTGTTCAAGCGCCATCTAC | 1.03 RPM ratio (pull-down/input)
26 | GATGATTGTTCTCCCAGCTGATGAATTCGCCGTATCGAGTAAACAAATTTTCCTAATCTTTCTGTTCAAGCGCCATCTAC | 0.932 RPM ratio (pull-down/input)
27 | GATGATTGTTCTCCCAGCTGATGAATTCCTGTTGTCGAGTAAACAAATTTTCCTAATCTTTCTGTTCAAGCGCCATCTAC | 2.34 RPM ratio (pull-down/input)
28 | GATGATTGTTCTCCCAGCTGATGAATTTGAATGTTCGAGTAAACAAATTTTCCTAATCTTTCTGTTCAAGCGCCATCTAC | 0.899 RPM ratio (pull-down/input)
29 | GATGATTGTTCTCCCAGCTGATGAATTGTGGGTCTCGAGTAAACAAATTTTCCTAATCTTTCTGTTCAAGCGCCATCTAC | 0.967 RPM ratio (pull-down/input)
30 | GATGATTGTTCTCCCAGCTGATGAATTGCTAGAGTCGAGTAAACAAATTTTCCTAATCTTTCTGTTCAAGCGCCATCTAC | 0.985 RPM ratio (pull-down/input)
31 | GATGATTGTTCTCCCAGCTGATGAATTCTATGCCTCGAGTAAACAAATTTTCCTAATCTTTCTGTTCAAGCGCCATCTAC | 0.89 RPM ratio (pull-down/input)
32 | GATGATTGTTCTCCCAGCTGATGAATTACCGATGTCGAGTAAACAAATTTTCCTAATCTTTCTGTTCAAGCGCCATCTAC | 1.08 RPM ratio (pull-down/input)
33 | GATGATTGTTCTCCCAGCTGATGAATTAGCTACGTCGAGTAAACAAATTTTCCTAATCTTTCTGTTCAAGCGCCATCTAC | 0.902 RPM ratio (pull-down/input)
34 | GATGATTGTTCTCCCAGCTGATGAATTACTGCTCTCGAGTAAACAAATTTTCCTAATCTTTCTGTTCAAGCGCCATCTAC | 0.948 RPM ratio (pull-down/input)
35 | GATGATTGTTCTCCCAGCTGATGAATTGCACACATCGAGTAAACAAATTTTCCTAATCTTTCTGTTCAAGCGCCATCTAC | 1.31 RPM ratio (pull-down/input)
36 | GATGATTGTTCTCCCAGCTGATGAATTATGCGTATCGAGTAAACAAATTTTCCTAATCTTTCTGTTCAAGCGCCATCTAC | 1.13 RPM ratio (pull-down/input)
37 | GATGATTGTTCTCCCAGCTGATGAATTTCGATGCTCGAGTAAACAAATTTTCCTAATCTTTCTGTTCAAGCGCCATCTAC | 0.936 RPM ratio (pull-down/input)
38 | GATGATTGTTCTCCCAGCTGATGAATTCCACATATCGAGTAAACAAATTTTCCTAATCTTTCTGTTCAAGCGCCATCTAC | 0.973 RPM ratio (pull-down/input)
39 | GATGATTGTTCTCCCAGCTGATGAATTCCGCTCTTCGAGTAAACAAATTTTCCTAATCTTTCTGTTCAAGCGCCATCTAC | 0.82 RPM ratio (pull-down/input)
40 | GATGATTGTTCTCCCAGCTGATGAATTGCCTAACTCGAGTAAACAAATTTTCCTAATCTTTCTGTTCAAGCGCCATCTAC | 0.992 RPM ratio (pull-down/input)
